Screen size: about 310,000 compounds; about 2,200 (0.71%) showed an effect of 50% or more. The effect is printed as a negative number. The list shows a part of the results.
Molecular target: human ether-à-go-go-related gene (hERG) potassium channel (human, UniProt Q12809)
Test: primary screen, population patch clamp on CHO cells stably expressing hERG

Chain of human ether-à-go-go-related gene (hERG) potassium channel (Q12809 whole entry, looked up): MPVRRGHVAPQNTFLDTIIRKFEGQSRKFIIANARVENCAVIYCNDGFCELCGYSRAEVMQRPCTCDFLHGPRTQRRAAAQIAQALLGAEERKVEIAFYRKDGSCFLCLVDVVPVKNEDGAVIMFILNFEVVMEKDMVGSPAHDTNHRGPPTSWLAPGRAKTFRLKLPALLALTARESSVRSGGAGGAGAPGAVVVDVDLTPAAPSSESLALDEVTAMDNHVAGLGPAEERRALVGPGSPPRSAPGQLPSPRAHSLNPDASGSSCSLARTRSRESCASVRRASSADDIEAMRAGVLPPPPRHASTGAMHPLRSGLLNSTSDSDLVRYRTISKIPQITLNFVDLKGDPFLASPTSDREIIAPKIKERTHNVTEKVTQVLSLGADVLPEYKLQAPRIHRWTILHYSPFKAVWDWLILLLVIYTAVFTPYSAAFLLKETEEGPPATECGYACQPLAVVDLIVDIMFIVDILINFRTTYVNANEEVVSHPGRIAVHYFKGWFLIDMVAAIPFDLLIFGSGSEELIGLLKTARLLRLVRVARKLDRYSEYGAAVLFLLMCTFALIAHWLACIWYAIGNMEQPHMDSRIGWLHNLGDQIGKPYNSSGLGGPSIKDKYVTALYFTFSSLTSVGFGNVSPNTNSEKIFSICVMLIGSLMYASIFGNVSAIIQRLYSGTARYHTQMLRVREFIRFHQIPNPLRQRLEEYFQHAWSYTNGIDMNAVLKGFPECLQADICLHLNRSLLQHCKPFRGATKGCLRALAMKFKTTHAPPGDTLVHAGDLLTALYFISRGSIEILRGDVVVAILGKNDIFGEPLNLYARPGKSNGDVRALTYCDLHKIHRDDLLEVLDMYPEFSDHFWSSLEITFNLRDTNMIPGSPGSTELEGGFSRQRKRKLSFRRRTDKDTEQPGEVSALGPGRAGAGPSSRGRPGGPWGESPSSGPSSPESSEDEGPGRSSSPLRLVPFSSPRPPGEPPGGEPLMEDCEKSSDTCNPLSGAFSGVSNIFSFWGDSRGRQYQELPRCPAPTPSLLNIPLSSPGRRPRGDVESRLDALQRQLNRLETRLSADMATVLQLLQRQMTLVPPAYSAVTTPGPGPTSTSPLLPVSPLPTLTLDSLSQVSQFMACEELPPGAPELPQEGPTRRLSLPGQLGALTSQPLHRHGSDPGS

Structure (SMILES)	hERG current change (%, negative = inhibition) at 1uM
O=C(C1CCOCC1)N1CCCC(N2CCN(c3ccc(F)cc3)CC2)C1 (stereo not drawn)	5.9%
COc1ccc2[nH]c(=O)c(CN(CCO)C(=O)NCc3ccccc3)cc2c1	0.186%
COc1cc(C(=O)NCCNc2nc3ccc(C)cc3cc2C#N)cc(OC)c1OC	9.87%
CCCn1nnnc1NCc1ccccc1OCc1cccs1	9.23%
COc1ccc(C(=O)N/C(=C\c2cn(C)c3ccccc23)C(=O)NCCCn2ccnc2)cc1OC	17.3%
CCOc1ccc(Oc2nc(NCC(C)C)nc(OC)n2)nn1	7.02%
CCOC(=O)NC(=O)c1cn(C(CC)CO)c(=O)[nH]c1=O (stereo not drawn)	11.5%
CCCCNC(=O)NNC(=O)c1ccco1	3.04%
Cc1cccc(C(=O)Nc2ccc(C(=O)Nc3ccc(O)cc3)cc2)c1	7.7%
CC(C)CCn1c(N2CCN(c3cccc(Cl)c3)CC2)nc2c1c(=O)[nH]c(=O)n2C	-4.54%
CCOC(=O)c1cc(C(=O)NC(C)c2ccccc2)c(=O)[nH]c1C (stereo not drawn)	15.2%
CCN(CC)N=Nc1[nH]nc2nc(C)cc(C)c12	14.5%
CCOc1ccc(C2=CSC3=NCCN23)cc1	13.4%
CCCn1c(N)c(C(=O)CSc2nc(C)cs2)c(=O)n(C)c1=O	4.46%
Cc1cc2nc(C3CCN(C(=S)NCC(C)C)CC3)[nH]c2cc1C.O=C(O)C(=O)O	-12.2%
CCOC(=O)Cn1ncc(-c2ccccc2)c1N	-3.65%
CCCNS(=O)(=O)c1ccc(OCC(=O)Nc2ccccc2F)cc1	-5.69%
COc1ccc(-c2ccc([C@H]3[C@H]4C=CC[C@@H](C)[C@@H]4C(=O)N3Cc3ccccc3)c(F)c2)cc1	9.65%
COc1ccccc1-c1ccc(SCC(=O)NC2CCCCC2)nn1	-27.2%
COC1=Cc2c(ccc3ccc(=O)oc23)OC1(C)C	6.94%
C=C(C)C(=O)Nc1cccc(C2=NOC3(C2)C[C@@H](C(N)=O)N(C(=O)C2(C)CC2)C3)c1 (stereo partly drawn)	14.2%
COc1ccc(CNC(=O)C2CCN(C(=O)c3cccc(Cl)c3)CC2)cc1	-3.93%

Structure (SMILES)	hERG current change (%, negative = inhibition) at 1uM
CC1=CC(=O)C=C(C)C1=NOc1ccc([N+](=O)[O-])cc1	-11.7%
CC1=C(C(=O)Nc2cccc(C(=O)N3CCN(c4cccc(C(F)(F)F)c4)CC3)c2)SCCO1	1.26%
O=C1COC(c2ccccc2)=CN1Cc1ccccc1	6.87%
O=C(O)Cc1nn(Cc2ccc(Cl)cc2)c(=O)c2ccccc12	8.5%
COCc1ccc(C(=O)N2CCCC(C(=O)c3cccc(C(F)(F)F)c3)C2)o1 (stereo not drawn)	9.37%
CC1(C)O[C@H]2CC(=O)OC[C@@]23C1CC(=O)[C@]1(C)C3CC[C@@]2(C)[C@H](c3ccoc3)OC(=O)[C@H]3O[C@]321 (stereo partly drawn)	6.21%
COc1cccc(C2(O)CCN(C(=O)C3CCC3)CC2)c1	13.8%
Cn1c(=O)c2nncnc2n(C)c1=O	8.41%
CCn1cc(C(=O)Nc2cccc(NC(C)=O)c2)c2cc(OC)c(OC)cc2c1=O	12.5%
CC(CC(=O)O)CC1=NS(=O)(=O)c2ccccc2N1 (stereo not drawn)	13.4%
COc1ccc(Br)cc1/C=N/NC(=O)c1cccc(S(=O)(=O)N2CCOCC2)c1	10.4%
CN1C(=O)COc2c(C(=O)NC3CN4CCC3CC4)cc(Cl)cc21.Cl (stereo not drawn)	6.73%
CCN1C(=O)C2(C(C(=O)c3cc4ccccc4o3)=C(O)C(=O)N2CCCN(C)C)c2ccccc21 (stereo not drawn)	15.8%
COc1ccc(C(=O)CSc2nc(-c3ccccn3)nc(C)c2Cl)cc1	13%
N[C@H](CSCc1ccccc1)C(=O)Nc1ccc([N+](=O)[O-])cc1	10.5%
COc1ccc2nc(NC(=O)c3cccc(-c4cc5ccccc5oc4=O)c3)sc2c1	10.7%
COc1ccc(NC(=O)CSc2ccc([N+](=O)[O-])cc2)cc1S(=O)(=O)N1CCOCC1	1.51%
COc1ccc(C(=O)N/N=C(\C)c2ccccn2)cc1OC	15.7%
N#C/C(=C\c1cccc(OCC(=O)O)c1)c1nc2ccccc2[nH]1	14.8%
CCOC(=O)C1(CCc2ccccc2)CCN(Cc2csc(C(C)=O)c2)CC1	-33.6%
C=CCN1C(=O)C2(C(C(=O)c3ccc(C)o3)=C(O)C(=O)N2CCCN2CCOCC2)c2ccccc21 (stereo not drawn)	11.6%
COC(=O)c1ccc(CN(c2ccccc2OC)S(=O)(=O)c2cccs2)o1	-0.741%

Structure (SMILES)	hERG current change (%, negative = inhibition) at 1uM
NC(=O)c1cc(S(=O)(=O)N2CCCC2)ccc1OCc1ccc(F)cc1	20%
N/C(=N\OC(=O)Nc1cccc(C(F)(F)F)c1)c1ccno1	9.72%
O=C(O)CCN=CC1=C(O)CC(c2ccccc2)CC1=O (stereo not drawn)	10.6%
C=CCn1c(SCCN2CCCC2)nc2c([nH]c3ccccc32)c1=O	-63.9%
CC(=O)c1c(C)nc(-c2ccc(Cl)cc2)nc1NC(=O)C(C)C	10.5%
COc1ccccc1NC(=O)c1cc2cc(Br)ccc2cc1O	17.7%
O=C(COC(=O)C1=COCCO1)Nc1ccc([N+](=O)[O-])cc1C(F)(F)F	19.9%
CC1CCc2sc(C(=O)NNS(=O)(=O)c3ccc(F)c(F)c3F)cc2C1 (stereo not drawn)	19.1%
Cc1ccc(C(=O)N2CCN(c3ncccn3)CC2)o1	11.9%
CCCC(=O)Nc1ccc(C(=O)NNC(=O)c2cccc([N+](=O)[O-])c2)cc1	10.8%
CCCc1cc(C(=O)Nc2cc(C)on2)no1	18.6%
COc1ccc(C(=O)Cn2nnc(-c3ccccc3NC(=O)C3CCCCC3)n2)cc1	11.9%
CCn1c(SCC(=O)NCC(=O)Nc2ccc(F)cc2)nnc1-c1cccs1	2.96%
CC(Cl)C(=O)NNc1cccc(Cl)n1 (stereo not drawn)	12.7%
Cc1cccc(C)c1OCc1cc(C(=O)N2CCN(Cc3nccn3C)CC2)no1	-19.1%
CCOC(=O)c1ccc(NS(=O)(=O)c2ccc(-c3coc(C)n3)cc2)cc1	21.6%
COc1ccc(OC)c(-c2cc(C(=O)NC3CCCC3)c3ccccc3n2)c1	-13.9%
Cc1cc(C(=O)NC2Cc3ccccc3C2)c(C)o1	8.98%
N#C/C(=C(/O)C(Cl)(Cl)Cl)c1nc2ccccc2[nH]1	11.3%
Cc1cc(C)n(CC(O)COc2ccccc2)n1 (stereo not drawn)	9.07%
CCOC(=O)N1CCC(N(CCOC)C(=S)Nc2cccc(SC)c2)CC1	3.27%
O=C(NC1CCCc2ccccc21)c1ccc2c(c1)OCO2 (stereo not drawn)	11.9%

Structure (SMILES)	hERG current change (%, negative = inhibition) at 1uM
CCOC(=O)/C=C/C(=O)Nc1cccc([N+](=O)[O-])c1	3.24%
O=C(O)C1CCCCC1C(=O)Nc1nccs1 (stereo not drawn)	7.1%
CCN(CC)S(=O)(=O)c1cccc(C(=O)NCC(=O)OCC(=O)NCc2ccccc2)c1	6.69%
COc1ccc(C2CC(c3ccc(OC)cc3O)=NN2C(=O)c2ccccc2)cc1 (stereo not drawn)	6.36%
COc1ccc(C2CC(c3cccs3)=NN2C(=O)c2ccc(Br)o2)cc1 (stereo not drawn)	13.5%
O=C(Nc1ccc(Cl)cc1C(=O)c1ccccc1)c1ccco1	3.75%
CCOc1oc(-c2ccc(OC)cc2)nc1C(F)(F)F	2.69%
O=C(CNC(=O)c1ccc(Br)o1)NC12CC3CC(CC(C3)C1)C2	15.5%
COc1ccc(N2CCN(C(=O)CCNS(=O)(=O)c3ccccc3)CC2)cc1	7.07%
Cc1ccc(NCN2C(=O)C3C4CCC(C4)C3C2=O)cc1 (stereo not drawn)	5.44%
Nc1cc(S(=O)(=O)Nc2ccccc2Cl)ccc1N1CCOCC1	10.5%
Cc1ccc(S(=O)(=O)N(C)C)cc1NC(=O)C1CCCN(C(=O)c2ccc(Cl)cc2)C1 (stereo not drawn)	6.71%
O=C(O)C(=O)O.O=S(=O)(c1cccc(Cl)c1Cl)N1CCN(C(=S)NCCCN2CCOCC2)CC1	4.1%
CC1Cc2cc(/C(O)=C3/C(=O)C(=O)N(CCN4CCOCC4)C3c3ccc([N+](=O)[O-])cc3)ccc2O1 (stereo not drawn)	1.31%
Cc1cccnc1NC(=O)CNC(=O)c1sc2ccccc2c1Cl	14.8%
CCN1CCN(c2ccc(S(=O)(=O)N3CCCCC3)cc2NC(=O)c2cccc(C)c2)CC1	-6.04%
COc1ccc(S(=O)(=O)Nc2cccc(-n3cnnn3)c2)cc1	-0.952%
CCN1CCN(C(=O)CN(C)S(=O)(=O)c2ccc(OC)c(C)c2)CC1	-6.54%
COc1ccccc1C1NC(=O)NC(C)=C1C(C)=O (stereo not drawn)	-6.11%
Cc1ccccc1-c1nc(S(=O)(=O)c2ccc(Cl)cc2)c(NCCN2CCOCC2)o1	-2.32%
Nc1cc(=O)[nH]c(SCC(=O)N2CCN(S(=O)(=O)c3ccc4ccccc4c3)CC2)n1	11.5%

Source: PMC4336329 (PLoS ONE, 2015)
